First the molecules themselves.
B1: LINE1-full (parent)
chain: UACGUAGGUGGUUUUCCCCUGAUAGUGCUAAGGGGGCCUGGAAGUUUGGACUGGGCAGAGCUCAACACAGCGUGGCAAAGUGGCUGUGGCUAGACUGCCUCUCUGGAUUCCUCGUCACUCAGCAGGGCAUCUCUGAGAGAAAUGCC

Read counts are not given, so values of variants with three or more changes are uncertain.

In this data set the parent is B1. The data set is described as follows: self-cleavage, relative activity (ratio to wild type); higher = more cleavage; in vitro, sequencing; the parent is a self-cleaving ribozyme.
On to U14C U115C A124U U134A, for which the self-cleavage was found to be 1.55. For U15C A124C U134A A142G, the self-cleavage came to 0.88. For the variant U15C U20C A65G A129U U130A, the self-cleavage worked out at 0.56. For U15C U20A U47A U134C the value was 0.98. U15A U119C A140G: the self-cleavage was 1.4. With U15C A50U U87C A138G the figure was 0; with U14C U100C A136G, 0.57; with U15C U20C A124U, 1.15. As for U15C A31G A43G A64G, the self-cleavage came to 0.84.

Regarding U15A U52C G58A U132C, the self-cleavage turned out to be 0.14. With U14C U85A U96C the figure was 0.05. With U15A U29A G88A, the self-cleavage came to 0. As for U15C A50G G93U U108C A140G A141G, the self-cleavage turned out to be 0. With U15C U45C U87C the figure was 0.27; with U14G C71U U132C, 1.28; with U15A G34U U47C A138U, 0.88. For U15C A30C U73A, the self-cleavage is 1.21. For the variant U15A A22G U26G C68U, the self-cleavage was 0.44. On to U15C C56G A77G A136G, for which the self-cleavage was found to be 0. For U15C C101U A142G the value was 1.73; for U15C A57G U96A A141G, 0.05; for U15C U39C A92G A141G, 0. For U15C A57U A59U U96A G127A the value was 0.29; for U15A U23C U62A G88A A117G A142G, 0; for U15C A65G U85A A94G A121U, 0.08. With U14C U100C U143C the figure was 1.31; with U15C A30G U73A, 0; with U15A C37G U134C, 1.48.

Turning to U15C A31G A57G A67G U132C, the self-cleavage was 0.84. For U15C A43G A94G C113U A117G the value was 0; for U15C U29C A117U G127U, 0.92. In the case of U15A A22G U26C G53A A57G U115A A140G U143C, the self-cleavage is 0. Consider U15C U26G U39C A138G, for which the self-cleavage came out at 1.45. U15C C66U U119G U130C A142G: the self-cleavage is 0. For U15C C28U A31G the value was 0.76; for U15C A42G U91A U108C U132C, 0.71; for U14G U45A U108A, 0.66.

In the case of U15C U96A U119C U143C, the self-cleavage stood at 0.05. Consider U15C U39A A50G, for which the self-cleavage worked out at 1.12. With U15C A30G U47C U96C the figure was 0.57; with U15C U104C A138U, 1.4; with U15A A65U C118A, 0.14. Take U15C U46C A78G: the self-cleavage was 1.65. U15A U45G U85A U87A: the self-cleavage was 0.09. Take U15C U20C G21U U143A: the self-cleavage was determined as 1. On to U14C U85C A107G, for which the self-cleavage was determined as 0.39.

Consider U14C U104A A129G, for which the self-cleavage worked out at 1.22.

As to U15C U29A A57G C71U A107G, the self-cleavage was 0.57. With U15C C28G A117U the figure was 1.17; with U15A A31G U104C, 0.57. Regarding U15C U20A A64U, the self-cleavage was 0.63. With U15C A50G U130C U143C the figure was 2.3; with U15C U46C U47C C113U, 1.16. As for U15A U52C A142G, the self-cleavage amounted to 0.92. For U15A C68U A77U, the self-cleavage stood at 0.07.

For U15C A22U G36A G127U, the self-cleavage was 0.91. As for U15C A67G U115A, the self-cleavage turned out to be 0.68. For the variant U15A U73C G137U, the self-cleavage turned out to be 0.6. Consider U15C A50U A94G U112C U115C, for which the self-cleavage was 1.15.

On to U15A U47A U96C U112C, for which the self-cleavage was determined as 0.21.

As to U14G U85C U132A A142G, the self-cleavage was 0.18. With U15C A22G U26C U39A U47A C98U the figure was 0.45.

Regarding U15A A43G A57G U85C, the self-cleavage was 0.

U14C U87A G114U G126A A141G: the self-cleavage turned out to be 0.1. For U15A U100A U130C A142G the value was 0.71. With U15C U62C A140G the figure was 0; with U15C A43C U85C, 0.2. On to U15C U20A A50G A57G C95U U96C, for which the self-cleavage amounted to 0.34. For U15A G86A A124G the value was 0.01. Regarding U15C U104A U115A C128U, the self-cleavage amounted to 1.85. For U15A A30G A64G C146U the value was 0.

On to U15C A64G A136G, for which the self-cleavage was 0.41. As to U15C A64G G114A, the self-cleavage was found to be 0.27. As to U15C A69C C76U U100A, the self-cleavage turned out to be 0.02. With U14G G33U A64G the figure was 0.21. With U15C A42G C68U U87A the figure was 0.03. As to U15C A30G G49U A57G G80A U143C, the self-cleavage was 0.96. With U15C G33U A77G U102C the figure was 2.19; with U15A A22C A57U A92G A141C, 0; with U15C A67U A107G A140G, 0.15. With U15A A31G G35A U73C U130C the figure was 1.6; with U14C U87A C99U A136G A138G A140U, 0.06; with U15C U87C U96C G127A U130C U143C, 0.16.

Consider U14C U96C U119C, for which the self-cleavage was determined as 0.
